Measured values taken from paper PMC4336329 (PLoS ONE, 2015).
The campaign covered roughly 310,000 compounds. About 14,000 (4.5%) showed an effect of 50% or more. Effects have a minus sign here. The list shows a part of the results.

What follows are molecules tested against human ether-à-go-go-related gene (hERG) potassium channel (human, UniProt Q12809) (assay: primary screen, population patch clamp on CHO cells stably expressing hERG).
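Note: peak tail current of the secondary pulse compared with the same well before compound.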

Chain of human ether-à-go-go-related gene (hERG) potassium channel (Q12809 whole entry, looked up): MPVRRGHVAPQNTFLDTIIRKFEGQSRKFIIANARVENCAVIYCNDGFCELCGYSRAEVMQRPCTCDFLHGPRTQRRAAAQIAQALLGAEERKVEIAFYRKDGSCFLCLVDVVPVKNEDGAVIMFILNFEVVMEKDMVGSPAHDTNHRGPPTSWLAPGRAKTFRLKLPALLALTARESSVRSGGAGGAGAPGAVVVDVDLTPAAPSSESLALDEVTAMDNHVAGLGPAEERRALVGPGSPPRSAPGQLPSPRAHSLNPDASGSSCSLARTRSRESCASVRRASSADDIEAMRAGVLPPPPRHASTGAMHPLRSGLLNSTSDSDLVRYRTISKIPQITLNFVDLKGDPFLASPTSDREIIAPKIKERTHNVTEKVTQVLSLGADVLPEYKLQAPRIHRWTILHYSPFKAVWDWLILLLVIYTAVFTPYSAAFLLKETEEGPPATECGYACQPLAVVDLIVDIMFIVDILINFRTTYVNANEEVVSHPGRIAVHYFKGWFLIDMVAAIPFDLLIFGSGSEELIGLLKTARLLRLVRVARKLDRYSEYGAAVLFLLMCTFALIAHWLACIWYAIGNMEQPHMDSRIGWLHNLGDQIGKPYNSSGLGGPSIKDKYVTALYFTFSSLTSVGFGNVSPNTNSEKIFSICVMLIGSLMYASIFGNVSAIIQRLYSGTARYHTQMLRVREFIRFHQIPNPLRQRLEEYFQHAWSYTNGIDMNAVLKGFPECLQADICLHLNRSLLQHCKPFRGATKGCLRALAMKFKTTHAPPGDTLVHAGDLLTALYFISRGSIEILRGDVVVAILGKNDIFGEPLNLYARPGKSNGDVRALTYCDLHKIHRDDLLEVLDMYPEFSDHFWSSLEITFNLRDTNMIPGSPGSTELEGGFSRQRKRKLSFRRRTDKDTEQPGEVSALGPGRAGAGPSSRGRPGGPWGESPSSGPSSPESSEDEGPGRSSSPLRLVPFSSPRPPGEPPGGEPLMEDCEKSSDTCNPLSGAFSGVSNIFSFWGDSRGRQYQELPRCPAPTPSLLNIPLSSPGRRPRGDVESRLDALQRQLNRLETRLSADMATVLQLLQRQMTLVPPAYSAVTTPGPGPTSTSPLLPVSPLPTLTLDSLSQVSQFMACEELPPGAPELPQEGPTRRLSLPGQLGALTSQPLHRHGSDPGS

SMILES	hERG current change (%, negative = inhibition) at 10uM
O=C(CCc1n[nH]c(=O)[nH]c1=O)N1CCOCC1	11.1%
Cc1c(Cl)cccc1NC(=O)C1CCCCC1	8.37%
Cc1cccc(C(=O)NCC(=O)N2CCN(c3ccc(Cl)cc3)CC2)c1	-26.3%
Cc1cc(C(=O)N/N=C/c2cccc([N+](=O)[O-])c2O)n[nH]1	4.6%
COC(=O)c1[nH]c2ccccc2c1NC(=O)C(C)N1CCOCC1 (centres unmarked)	9.7%
CC(C)C[C@H](NC(=O)[C@@H]1O[C@H]1C(=O)O)C(=O)NCCCCN=C(N)N	-32.1%
Cc1ccc(NC(=O)Nc2cccc([N+](=O)[O-])c2)cc1F	4.8%
O=C1c2cccnc2C(=O)N1Cc1ccc(S(=O)(=O)N2CCN(c3ccccc3)CC2)cc1	19.6%
Br.CCCn1c(=N)n(CC(=O)c2ccc(Cl)c(Cl)c2)c2ccccc21	-51.5%
COc1cc(C(=O)OCC(=O)c2c(N)n(C)c(=O)n(C)c2=O)ccc1OCCC(C)C	11.8%
Cc1ccc(N2CC(C(=O)N3CCC(C(=O)Nc4ccc(Br)cc4)CC3)CC2=O)cc1 (centres unmarked)	-64.2%
C=CCN(C(=O)c1csnn1)C(C(=O)NC1CCCCC1)c1ccccc1 (centres unmarked)	14.8%
O=C(NNc1cc(Cl)ccc1Cl)c1cccs1	7.63%
CCc1cc2c(SCC(=O)Nc3ncc(Cl)c(C)c3Cl)ncnc2s1	-7.91%
Cc1ccc(NC(=O)c2cnc(N3CCN(c4ccccn4)CC3)c3ccccc23)c(Br)c1	10.7%
Nc1nnnn1/N=C\c1ccc(Cl)c([N+](=O)[O-])c1	3.26%
COc1ccc(/C=C/C(=O)Nc2nc(C)c(C(=O)N(C)C)s2)cc1OC	-20.7%
COc1ccc2nc3ccccc3nc2c1NC(=O)c1ccc(Cl)cc1Cl	1.86%
O=C(Cn1c(=O)c2cccn2c2cccnc21)N1CCN(c2ccc(Cl)cc2)CC1	-47%
Cc1nn(CCO)c2ncc(C(=O)c3cc(F)ccc3O)cc12	21.5%
COc1ccc(S(=O)(=O)Nc2cc3c(C(C)=O)c(C)oc3c3ccccc23)cc1	-5.49%
O=C(COC(=O)c1ccc([N+](=O)[O-])s1)NC(c1ccccc1)c1ccccc1	4.45%

SMILES	hERG current change (%, negative = inhibition) at 10uM
Cc1ccc(NC(=O)Cn2cc(C(F)(F)F)cc(Cl)c2=O)cc1S(=O)(=O)N1CCCCC1	-32.9%
COc1cccc(OCC(O)CN2CC(C)CC(C)C2)c1.Cl (centres unmarked)	-13.5%
CCCCC(CC)CNC(=O)c1ccc2c(c1)OCO2 (centres unmarked)	-9.28%
COCCCNC(=O)C1Cc2cc(S(=O)(=O)N3CCCC3)ccc2N1C(C)=O (centres unmarked)	14%
CCC(C)n1c(SC(C)C#N)nc2ccccc2c1=O (centres unmarked)	-0.455%
CCCc1nn(CCc2ccccn2)c(N)c1CC	-4.32%
CC(C)CN(CC(C)C)C(=O)CN1C(=O)NC2(CCc3ccccc3C2)C1=O (centres unmarked)	-8.61%
COc1cc(Br)c(C(C)NC(=O)c2ccccc2)cc1OC (centres unmarked)	14.1%
Cc1cccc(N2CCN(C(=O)n3ccnc3)CC2)c1C	-26.2%
CC(C)(C)c1nc2ccccc2c2nnc(SCC(=O)Nc3nccs3)n12	7.66%
Cc1nnc(Sc2cc(C(=O)NC3CC3)c3ccccc3n2)s1	-20.7%
CCN(CC)C1CCN(C(=O)c2ccc(OC3CCN(CCc4ccccc4)CC3)cc2)C1 (centres unmarked)	2.06%
CC12CN3C(O)C(C)(C1)CC(C)(C2)C3O (centres unmarked)	2.99%
CC(=C/C(=O)O)/C=C/c1ccc(Cl)o1	8.64%
Cc1cc(C(=O)N/N=C/c2ccccc2Br)no1	-2.86%
O=C1NCCN(Cc2cccc(Oc3ccccc3)c2)C1CC(=O)N1CCCO1 (centres unmarked)	-7.51%
C=CCNC(=O)c1cc(-c2cccnc2)nc2ccccc12	-34.7%
CCOC(=O)CSc1snnc1C	26.2%
O=C(COC(=O)c1ccccc1C(=O)N1CCN(c2ccc(F)cc2)CC1)NCc1ccccc1	-73.6%
CCCCS(=O)CC(COc1ccc(Cl)cc1)OC(=O)c1ccccc1 (centres unmarked)	-56.3%
CC(=O)c1ccc(NC(=O)Cc2ccsc2)cc1	5.98%
CCOC(=O)c1cnn(-c2ccccc2)c1NC(=O)c1ccccc1C	-7.29%

SMILES	hERG current change (%, negative = inhibition) at 10uM
Cc1cccc(OCC(=O)N2CCC(N3CCOCC3)CC2)c1	0.537%
CCN(CC)CCSc1nnc2c3cc(C)ccc3n(Cc3ccccc3)c2n1	-79.1%
Cc1cccc(NC(=O)Cn2cnc3ccc(S(=O)(=O)N4CCC(C)CC4)cc3c2=O)n1	-31.5%
COc1ccc(OC)c(NC(=O)C2CC(=O)N(c3ccccc3)C2)c1 (centres unmarked)	5.86%
COc1ccc(CCNC(=O)Cn2c(=O)n(-c3ccc(F)cc3F)c(=O)c3sccc32)cc1OC	-0.593%
O=C(Cc1cccc(NC(=O)C2CCCN(C(=O)C3CCC3)C2)c1)Nc1cccc(C(=O)N2CCCC2)c1 (centres unmarked)	7.74%
CCOC(=O)Nc1cccc(OCC(=O)Nc2ccccc2OCC)c1	-11.4%
COc1cc2c(cc1OC)C(COc1cccc(C(F)(F)F)c1)NCC2 (centres unmarked)	-31%
CCOc1ccc(CCNC(=O)c2ccc(CS(=O)Cc3ccc(Cl)cc3)o2)cc1OCC (centres unmarked)	-24.1%
C/C(=N/Oc1nc(C)cc(C)n1)c1ccc(F)cc1	-13.6%
COc1cccc(C(=O)NCc2n[nH]c(=S)n2-c2cccc(C)c2)c1	22.6%
CSc1ccc(Cl)c(C(=O)NCCOc2ccccc2)c1	-3.32%
CN(C)c1nc2c(c(N)nn2-c2ccc(Cl)cc2)c(=O)o1	-4.18%
COc1ccc2[nH]c(=O)c(CN(C(=O)C3CCCO3)c3ccc(C)c(C)c3)cc2c1 (centres unmarked)	-8.86%
Cc1cc(C(=O)N(CCC#N)Cc2cccs2)no1	14.1%
CCCCc1c(C)c2ccc(OC)c(/C(C)=N\O)c2oc1=O	-6.55%
CCOc1ccc(C2C([N+](=O)[O-])=C(C)N(C)C(=O)N2C)cc1OC (centres unmarked)	-5.41%
COc1ccc2c(c1OC)C(=O)OC2N1C(=O)CC[C@H]1C(=O)Nc1ccc2c(c1)OCO2 (some centres unmarked)	2.27%
O=C(Nc1ccc(Cl)cc1)c1nc[nH]c1C(=O)NCc1ccccc1	16.5%
COc1ccc(NC(=O)CC2C(=O)N(C)C(=S)N2Cc2ccco2)cc1 (centres unmarked)	-7.55%
COC(=O)C1=C(C)NC(=O)C1(NS(=O)(=O)c1ccc(NC(C)=O)cc1)C(F)(F)F (centres unmarked)	6.65%
CCOC(=O)N1CCC(NC(=O)CN(c2ccc(C(C)C)cc2)S(=O)(=O)c2c(C)nn(C)c2C)CC1	-10.3%

SMILES	hERG current change (%, negative = inhibition) at 10uM
COc1ccc(/C=N/Nc2ncc(-c3ccccc3)cn2)c(OC)c1	11.4%
CCOc1ccc(/C(C)=N/NC(=O)c2nnn(-c3nonc3N)c2-c2cccs2)cc1	20%
COc1ccc(CNC(=O)C2CCN(S(=O)(=O)c3ccc4c(c3)CC(C)N4C(=O)C3CC3)CC2)cc1 (centres unmarked)	-4.01%
Cc1ccc(-c2cc(=O)c3ccc(Cl)cc3[nH]2)cc1	8.8%
COc1ccc(NC(=O)/C(=C/c2ccc(OC(C)=O)c(OC)c2)NC(C)=O)cc1	1.88%
Cc1cccc([C@@H]2[C@@H]3C(=O)N(Cc4ccccc4)C(=O)[C@@H]3[C@]3(Cc4ccc(Cl)cc4)C(=O)N(c4cccc(Cl)c4)C(=O)N23)c1	5.6%
Cc1noc(C)c1COc1ccccc1C(=O)N1CCN(S(=O)(=O)c2ccccc2C(F)(F)F)CC1	-21.2%
CCOc1nc(NC2CCCCC2)nc(NC(C)(C)C)n1	-25.4%
Cc1oc2c(CN3CCCCC3)c(O)ccc2c(=O)c1-c1ccc(Cl)cc1	-24%
NCC(=O)c1cccc2ccc[n+]([O-])c12	26.6%
COc1ccc(-c2csc(Cc3nnc(N4CCOCC4)n3-c3ccccc3)n2)cc1OC	-1.84%
O=[N+]([O-])c1ccc(-c2nc(NCc3ccccc3)c3ccccc3n2)cc1	21.2%
CCOC(=O)C1NN=C(C(=O)c2ccccc2)C1c1ccccc1 (centres unmarked)	-11.5%
CC[C@H](C)[C@@H](C(=O)NCCCCCCCCCCC(=O)N1CCN(C(=O)OC(C)(C)C)CC1)n1cc(CCCCCNC(=O)OC(C)(C)C)nn1	0.865%
CC(=O)c1cnc2scnn2c1=O	11.4%
O=C(Nc1ccccc1)N1CC=C(c2ccccc2)CC1	-6.6%
O=C(OCC(=O)N(C1CCCCC1)C1CCCCC1)c1cnccn1	-9.03%
COC1CCN(Cc2cn(Cc3ccccc3)nc2-c2cc3ccccc3o2)CC1	-71.9%
Cl.NCCCCCc1nnc(SC/C=C/c2ccccc2)o1	-20%
O=C(O)c1ccc2c(=O)n(-c3ccccc3F)c(=S)[nH]c2c1	5.01%
